# Measured values published in the supplement of paper PMC8728848.
# The other results are listed elsewhere or left out.
# Legend:
# Assay in all cases: glycan array binding signal (z-score within array); higher = stronger binding
# Conditions in all cases: glycan notation: IUPAC condensed, linker removed
# [1] = target: Gal(b1-4)GlcNAc(b1-3)Gal(b1-4)Glc
# Summary of the method: (§1)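 Glycan array data were curated from 3228 arrays in the Consortium for Functional Glycomics database and kept only where the protein sequence was available. Glycan names were converted to IUPAC-condensed notation, and columns mapping to the same glycan were averaged. The binding signal is a within-array Z-score, averaged across arrays of the same protein sequence at different concentrations or buffers and across linkers. Negative Z-scores can be read as non-binding.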
# [2] = target: Gal(b1-4)GlcNAc(b1-3)Gal(b1-4)GlcNAc
# Summary of the method: as §1
# [3] = target: Gal(b1-4)GlcNAc(b1-3)Gal(b1-4)GlcNAc(b1-3)Gal(b1-4)GlcNAc
# Summary of the method: as §1
# [4] = target: Gal(b1-4)GlcNAc(b1-3)Gal(b1-4)[Fuc(a1-3)GlcNAc(b1-6)]Gal(b1-4)Glc
# Summary of the method: as §1
# [5] = target: Gal(b1-4)GlcNAc(b1-3)Gal(b1-4)[Fuc(a1-3)]GlcNAc(b1-3)Gal(b1-4)[Fuc(a1-3)]GlcNAc
# Summary of the method: as §1
# [6] = target: Gal(b1-4)GlcNAc(b1-3)GalNAc
# Summary of the method: as §1
# [7] = target: Gal(b1-4)GlcNAc(b1-3)[Gal(b1-4)GlcNAc(b1-6)]Gal(b1-4)GlcNAc
# Summary of the method: as §1
# [8] = target: Gal(b1-4)GlcNAc(b1-3)[Gal(b1-4)GlcNAc(b1-6)]GalNAc
# Summary of the method: as §1
# [9] = target: Gal(b1-4)GlcNAc(b1-3)[GlcNAc(b1-6)]Gal(b1-4)GlcNAc
# Summary of the method: as §1
# [10] = target: Gal(b1-4)GlcNAc(b1-6)Gal(b1-4)GlcNAc
# Summary of the method: as §1
# [11] = target: Gal(b1-4)GlcNAc(b1-6)GalNAc
# Summary of the method: as §1
# [12] = target: Gal(b1-4)GlcNAc(b1-6)[Gal(b1-3)]GalNAc
# Summary of the method: as §1
# [13] = target: Gal(b1-4)GlcNAc6P
# Summary of the method: as §1
# [14] = target: Gal(b1-6)Gal
# Summary of the method: as §1
# [15] = target: Gal3S(b1-3)GalNAc
# Summary of the method: as §1
# [16] = target: Gal3S(b1-3)GlcNAc
# Summary of the method: as §1
# [17] = target: Gal3S(b1-3)[Fuc(a1-4)]GlcNAc
# Summary of the method: as §1
# [18] = target: Gal3S(b1-4)Glc
# Summary of the method: as §1
# [19] = target: Gal3S(b1-4)Glc6S
# Summary of the method: as §1
# [20] = target: Gal3S(b1-4)GlcNAc
# Summary of the method: as §1
# [21] = target: Gal3S(b1-4)GlcNAc6S
# Summary of the method: as §1
# [22] = target: Gal3S(b1-4)[Fuc(a1-3)]Glc
# Summary of the method: as §1
# [23] = target: Gal3S(b1-4)[Fuc(a1-3)]Glc6S
# Summary of the method: as §1
binder,measurement,setting,value
"OrfX (Escherichia coli), Q9X4B6_ECOLX (protein) MIKIARIAVTLGLLSSLGAQAYAAGLVVNDNDLRNDLAWLSDRGVIHLSLSTWPLSQEEIARALKKAKPSYSSEQVVLARINQRLSALKADFRVTGYTSTDQPGTPQGFGQTQPADNSLGLAFNNSGEWWDVHLQGNVEGGERISNGSRFNANGAYGAVKFWNQWLSFGQVPQWWGPGYEGSLIRGDAMRPMTGFLMQRAEQAAPETWWLRWVGPWQYQISASQMNQYTAVPHAKIIGGRFTFTPFQSLELGASRIMQWGGEGRPQSFSSFWDGFTGHDNTGTDNEPGNQLAGFDFKFKLEPTLGWPVSFYGQMVGEDESGYLPSANMFLGGVEGHHGWGKDTVNWYVEAHDTRTNMSRTNYSYTHHIYKDGYYQQGYPLGDAMGGDGQLIAGKVELITEDNQRWSTRLVYAKVNPENQSINKAFPHADTLKGLQLGWSGDVYQSVRLNTSLWYTNANNSDSDDVGASAGIEIPFSL",glycan array binding signal (z-score),[1],-0.162
same,glycan array binding signal (z-score),[2],-0.309
same,glycan array binding signal (z-score),[3],-0.265
same,glycan array binding signal (z-score),[4],-0.188
same,glycan array binding signal (z-score),[5],-0.216
same,glycan array binding signal (z-score),[6],-0.124
same,glycan array binding signal (z-score),[7],-0.378
same,glycan array binding signal (z-score),[8],-0.152
same,glycan array binding signal (z-score),[9],-0.224
same,glycan array binding signal (z-score),[10],0.129
same,glycan array binding signal (z-score),[11],0.012
same,glycan array binding signal (z-score),[12],-0.078
same,glycan array binding signal (z-score),[13],0.611
same,glycan array binding signal (z-score),[14],0.048
same,glycan array binding signal (z-score),[15],-0.272
same,glycan array binding signal (z-score),[16],-0.202
same,glycan array binding signal (z-score),[17],-0.006
same,glycan array binding signal (z-score),[18],0.076
same,glycan array binding signal (z-score),[19],-0.206
same,glycan array binding signal (z-score),[20],-0.17
same,glycan array binding signal (z-score),[21],0.921
same,glycan array binding signal (z-score),[22],-0.08
same,glycan array binding signal (z-score),[23],2.79
